Test results taken from article PMC10714751 (Microbiology Spectrum, 2023).
Like-named read-outs stand apart in the source and are kept apart here. Starred links: 1 amine or outer side, 2 acyl side, 3 side chain; linkers in the order of their positions; H or OH if unused. Positions of bridges follow the written chain, without caps; N, C: chain ends. Non-standard residues stand in square brackets, D forms with d. Residues, ends and D or L forms follow the SMILES beside them. *: point of attachment. dAsp(3R-OH) = N[C@@H](C(=O)O)[C@@H](O)C(=O)O; Palmitoleoyl = CCCCCC/C=C\CCCCCCCC(=O)*; X1 = NC[C@H](O)[C@@H](N[*:1])C(=O)[*:2]; X2 = CCC(C)(O)[C@H](N[*:1])C(=O)[*:2]; d(aIle) = CC[C@H](C)[C@@H](N)C(=O)O; d(aThr) = C[C@@H](O)[C@@H](N)C(=O)O; Myristoyl = CCCCCCCCCCCCCC(=O)*; dOrn = NCCC[C@@H](N)C(=O)O; X3 = CC[C@H](C)CCCCC(=O)*; hSer = N[C@@H](CCO)C(=O)O; Dab = NCC[C@H](N)C(=O)O

What was measured:
[1] = system: A. baumannii (ATCC 17978); test: Exogenous addition of purified LPS and lipid A assay; format: cell-based, Acinetobacter baumannii; settings: 500 µg/mL in text (100 µg/mL in method and legend); for increase of MIC90 in the presence of exogenous LPS: purified LPS; for increase of MIC90 in the presence of exogenous lipid A: purified lipid A
Method: Prior to the addition of test compounds, either purified LPS (Sigma-Aldrich L2018) or lipid A (Sigma-Aldrich L5399) (100 µg/mL) was added to wells.

A. baumannii ATCC 17978 = settings: for Decrease (%): 26 h; for Δ (change in log CFU/thigh relative to 2 h baseline): 26 h versus 2 h baseline
Method: Eurofins used mice from BioLASCO Taiwan.
The dosing volumes were 10 mL/kg.

[2] = system: A. baumannii (ATCC 17978); test: LpxC inhibition by CHIR-090 kinetic assay; format: cell-based, Acinetobacter baumannii; settings: turnercyclamycins 16 µg/mL, colistin 8 µg/mL; for effect on A. baumannii growth as single agent: OD600 every 30 min for 24 h, 37°C, CHIR-090 8 µg/mL
Method: Turnercyclamycins A and B (16 µg/mL) and colistin (8 µg/mL) were used singly and in combination with CHIR-090 (8 µg/mL). Each assay was performed in triplicate in a 96-well plate. The plate was then incubated statically at 37°C in a Biotek-Synergy 2 Microplate Reader (Biotek). The OD600 of each well was then measured every 30 min for 24 h.

**Q.** Which “increase of MIC90 in the presence of exogenous LPS” value (shortened to “increase … of exogenous LPS”) [1] does the source give for `CCCCCCCCCCCCCC(=O)N[C@H](CCCN)C(=O)N[C@@H](CO)C(=O)N[C@H](C(=O)N[C@@H](C(=O)N[C@@H](C(=O)N[C@H]1C(=O)NCC(=O)N[C@@H](C(C)(O)CC)C(=O)N[C@H]([C@@H](C)CC)C(=O)N[C@@H](CCO)C(=O)N[C@@H](C)C(=O)N[C@H]([C@@H](C)CC)C(=O)N[C@@H](CCC(=O)O)C(=O)O[C@@H]1C)[C@@H](O)CN)[C@@H](O)C(=O)O)C(C)C` (stereo partly drawn) [Turnercyclamycin A] (Myristoyl-[dOrn]SV[dAsp(3R-OH)][X1][d(aThr)]G[X2][d(aIle)][hSer]A[d(aIle)]E; ester 6-C) here?
**A.** fourfold

**Q.** And the “increase of MIC90 in the presence of exogenous lipid A” value (shortened to “increase … of exogenous lipid A”) [1]?
**A.** twofold

**Q.** What about the “Decrease (%)” value (A. baumannii ATCC 17978; 6.25 mg/kg IV, BID, q12h, CFU per thigh versus vehicle) of the same compound?
**A.** 27%

**Q.** What about the “Δ (change in log CFU/thigh relative to 2 h baseline)” value (A. baumannii ATCC 17978; 6.25 mg/kg IV, BID, q12h) of the same compound?
**A.** 2.27

**Q.** What about the “Decrease (%)” value (A. baumannii ATCC 17978; 12.5 mg/kg IV, BID, q12h, CFU per thigh versus vehicle) of the same compound?
**A.** 98%

**Q.** What about the “Δ (change in log CFU/thigh relative to 2 h baseline)” value (A. baumannii ATCC 17978; 12.5 mg/kg IV, BID, q12h) of the same compound?
**A.** 0.10

**Q.** And the “Decrease (%)” value (A. baumannii ATCC 17978; 25 mg/kg IV, BID, q12h, CFU per thigh versus vehicle)?
**A.** 100%

**Q.** And the “Δ (change in log CFU/thigh relative to 2 h baseline)” value (A. baumannii ATCC 17978; 25 mg/kg IV, BID, q12h)?
**A.** -1.65

**Q.** And the “response at 26 h after infection relative to colistin” value (A. baumannii ATCC 17978; 25 mg/kg i.v. at 2 and 14 h, colistin 30 mg/kg s.c.)?
**A.** comparable to colistin

**Q.** What about the “reduction in bacterial counts at 26 h after infection” value (A. baumannii ATCC 17978; 25 and 12.5 mg/kg i.v. at 2 and 14 h after infection (higher two doses)) of the same compound?
**A.** statistically significant reduction

**Q.** How did the “increase … of exogenous LPS” value [1] turn out when `CCCCCC/C=C\CCCCCCCC(=O)N[C@H](CCCN)C(=O)N[C@@H](CO)C(=O)N[C@H](C(=O)N[C@@H](C(=O)N[C@@H](C(=O)N[C@H]1C(=O)NCC(=O)N[C@@H](C(C)(O)CC)C(=O)N[C@H]([C@@H](C)CC)C(=O)N[C@@H](CCO)C(=O)N[C@@H](C)C(=O)N[C@H]([C@@H](C)CC)C(=O)N[C@@H](CCC(=O)O)C(=O)O[C@@H]1C)[C@@H](O)CN)[C@@H](O)C(=O)O)C(C)C` (stereo partly drawn) [Turnercyclamycin B] (Palmitoleoyl-[dOrn]SV[dAsp(3R-OH)][X1][d(aThr)]G[X2][d(aIle)][hSer]A[d(aIle)]E; ester 6-C) was run?
**A.** fourfold

**Q.** What about the “increase … of exogenous lipid A” value [1] of the same compound?
**A.** twofold

**Q.** For `C[C@@H](O)[C@H](NC(=O)c1ccc(C#Cc2ccc(CN3CCOCC3)cc2)cc1)C(=O)NO` [CHIR-090], which “effect on A. baumannii growth as single agent” value [2] is on record?
**A.** did not cause the death

**Q.** `CC[C@H](C)CCCCC(=O)N[C@@H](CCN)C(=O)N[C@H](C(=O)N[C@@H](CCN)C(=O)N[C@H]1CCNC(=O)[C@H]([C@@H](C)O)NC(=O)[C@H](CCN)NC(=O)[C@H](CCN)NC(=O)[C@H](CC(C)C)NC(=O)[C@@H](CC(C)C)NC(=O)[C@H](CCN)NC1=O)[C@@H](C)O` [Colistin, colistin (polymyxin E)] (X3-[Dab]T[Dab][Dab][Dab][dL]L[Dab][Dab]T; lactam 4-C) was tested. Which “increase … of exogenous LPS” value [1] did it give?
**A.** approximately fourfold

**Q.** What about the “increase … of exogenous lipid A” value [1] of the same compound?
**A.** approximately fourfold

**Q.** What about the “Decrease (%)” value (A. baumannii ATCC 17978) of the same compound?
**A.** 100%

**Q.** What about the “effect on A. baumannii growth as single agent” value [2] of the same compound?
**A.** effective as single agents

**Q.** What about the “effect on A. baumannii growth in combination with CHIR-090” value ([2]; with CHIR-090 8 µg/mL, OD600 for 24 h) of the same compound?
**A.** the bacteria survived
